In all, about 45,000 compounds went through this assay and about 200 (0.44%) were called active. Roughly 7% stayed inconclusive and do not appear here. The call rests on the fitted dose curve; in most records, active means well fitted activation curve with a large enough effect; inconclusive means small, poorly fitted or top-dose-only effect; inactive means no such curve, though single readings can be large or run the other way. This is one part of the list.
Assay: qHTS of TDP-43 Inhibitors: NCGC Sytravon Library Screen; further: 0% is about no effect; nearly all actives have a fitted effect of over 55% in size
Conditions: yeast TDP-43 toxicity rescue, BacTiter-Glo growth, 24 h; series mostly up to 46.1 µM; growth rescue (activation): at the top concentration
How it was run: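 TDP-43-expressing yeast, pregrown in raffinose, seeded at OD600 0.02 in galactose medium with compound for 24 hr at 30 deg C. Growth read by BacTiter-Glo luminescence, so rescue of toxicity appears as activation.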

SMILES | growth rescue (activation)
Cc1ccc(NC(=O)COC(=O)c2cc(Cl)ccc2[N+](=O)[O-])c(C)c1 | inactive: 20.5%
COc1cc(-c2cc(C(=O)Nc3c(Cl)cc(Cl)cc3Cl)c3ccccc3n2)cc(OC)c1OC | inactive: 0.435%
O=C(O)C1CCN1C1CCCCC1 (centres undefined) | inactive: -2.19%
Cc1ccc(CN2CCN(/N=C/c3ccccc3)CC2)cc1 | inactive: 5.83%
CC(=O)Nc1ccc(C=NNC(=O)c2ccc(NS(=O)(=O)c3cccs3)cc2)cc1 | inactive: 15.5%
COc1ccc(C2SCC(=O)N2CCCN(C)C)cc1 (centres undefined) | inactive: 18%
Cc1nnc(C)n1N | inactive: -6.43%
Cn1cccc1C(=O)OCc1ccc(F)cc1 | inactive: -5.81%
COc1ccc(-c2cc(C(=O)Nc3ccccc3O)c3ccccc3n2)cc1OC | inactive: -2.42%
FC(F)(F)c1ccc(C2NCCc3sccc32)cc1 (centres undefined) | inactive: -10.2%
Cc1ccc(NC(=S)NCCN(C2CCCCC2)C2CCCC2)cc1C | inactive: -8.25%
CCN(CC)S(=O)(=O)c1cc(NC(=O)C(C)Nc2ccccc2N2CCOCC2)ccc1C (centres undefined) | inactive: -3.73%
CC(=O)c1c(C)[nH]c(C(=O)Nc2ccc(Cl)c(S(=O)(=O)N3CCOCC3)c2)c1C | inactive: -12.5%
CC(C)Oc1ccc(C(=O)Nc2ccc(N3CCCCC3)cc2)cc1 | inactive: -25.5%
CCOc1cccc(CN2CCCC(N3CCc4cc(OC)c(OC)cc4C3)C2)c1O (centres undefined) | inactive: 1.77%
COc1ccc(C2=NOC(C(=O)NCc3cccnc3)C2)cc1OC (centres undefined) | inactive: -0.899%
Cc1cc(C)cc(C(=O)NCC(=O)OCC(=O)N2CCN(S(=O)(=O)c3ccc4ccccc4c3)CC2)c1 | inactive: -7.02%
NC(=O)N(CCC(=O)O)c1ccccc1 | inactive: 10.3%
COc1ccc(NC(=O)CSc2ncnc3sc(C)cc23)cc1 | inactive: 7.45%
O=C1Nc2ncccc2OC1CCCl (centres undefined) | inactive: -13.6%
NC(=O)CN1C(=O)C2C3c4ccccc4C(c4ccccc43)C2C1=O (centres undefined) | inactive: 12.6%
O=[N+]([O-])c1ccc2nnn(O)c2c1 | inactive: -8.07%
CC(=O)Nc1ccc(C2NC(=S)N(c3ccccc3C(F)(F)F)C(C)=C2C(=O)N2CCOCC2)cc1 (centres undefined) | inactive: 5.26%

SMILES | growth rescue (activation)
COc1ccc2[nH]c(=O)c(CN(c3ccc(C)c(C)c3)S(C)(=O)=O)cc2c1 | inactive: -19.8%
O=C(/C=C/c1ccc(Br)cc1)Nc1ccc(S(=O)(=O)Nc2ncccn2)cc1 | inactive: 6.84%
CCCn1c(SCC(=O)c2cc(C)ccc2C)n[nH]c1=O | inactive: 10.2%
CCOc1ccc(N2C(=O)CC(NCCNc3ccc([N+](=O)[O-])cn3)C2=O)cc1 (centres undefined) | inactive: 10.3%
O=C(CCN1C(=O)c2cccc3cccc(c23)C1=O)Nc1ccon1 | inactive: 10.3%
COC(=O)c1ccc(NC(=O)NCCCl)cc1 | inactive: 5.82%
COc1ccc(CNC(=O)CN(Cc2ccccc2OC)C(=O)c2csnn2)cc1 | inactive: -7.78%
Cc1ccc(N(C(=O)Cn2nnc(-c3ccc(F)cc3)n2)C(C(=O)NC(C)(C)C)c2ccncc2)cc1 (centres undefined) | inactive: -13.3%
CCOc1ccc(NC(=O)C2CCN(C(=O)C3CC(=O)N(c4ccc(C)cc4)C3)CC2)cc1 (centres undefined) | inactive: 9.96%
O=C(NC(=S)Nc1ccc2[nH]c(=O)[nH]c2c1)c1ccccc1[N+](=O)[O-] | inactive: 4.04%
CC(=O)N1c2ccc(C)cc2C(c2ccccc2)CC1C (centres undefined) | inactive: 18.9%
O=C1CN(C(=O)COc2ccc(Br)cc2F)c2ccccc2N1 | inactive: 14.6%
COc1cc(OC)cc(C(=O)N[C@H](C(=O)NCc2ccccc2)C(C)C)c1 | inactive: -18.9%
COc1cccc(C(=O)N2CCC(CCC(=O)Nc3cccc(C)c3)CC2)c1 | inactive: 7.78%
CCOC(=O)C1CCN(C(=O)COc2ccc(S(=O)(=O)N3CCOCC3)cc2C)CC1 | inactive: 8.27%
COC(=O)C1CN(S(=O)(=O)c2cc(OC)ccc2OC)CCS1 (centres undefined) | inactive: -12%
O=C1NC2(NN1c1ccccc1)C1CC3CC(C1)CC2C3 (centres undefined) | inactive: 16.1%
CN(C)c1ccc(C=C2C(=O)OC(C)(C)OC2=O)cc1 | inactive: 19.8%
CCN(CC)S(=O)(=O)c1cccc(C(=O)N/N=C/c2ccccc2OCC(=O)O)c1 | inactive: 2.2%
COCCN1C(=O)c2ccc(C(=O)Nc3cccnc3)cc2C1=O | inactive: 19.6%
CCOC(=O)C1CCCN(S(=O)(=O)c2cc(Br)cc3c2N(C(=O)CC)CC3)C1 (centres undefined) | inactive: 5.56%
CN(C)/C=N/C(=S)Nc1ccc(F)cc1 | inactive: 30.3%
CC(C)Oc1cccc(C(=O)C2CCCN(Cc3cnc(N4CCCC4)s3)C2)c1 (centres undefined) | inactive: -1.69%

SMILES | growth rescue (activation)
Cc1ccc(C(OCC(C)(C)C[N+](C)(C)C)c2ccccc2)cc1 (centres undefined) | inactive: -8.39%
COc1ccc(CNC(=O)CN(C(=O)c2csnn2)c2cccc(F)c2)cc1 | inactive: -4.1%
O=C(CSc1nc2ccccc2c(=O)n1-c1ccc(F)cc1F)c1c[nH]c2ccccc12 | inactive: 2.36%
CC(c1ccccc1)N1CCc2[nH]c(=S)[nH]c(=O)c2C1 (centres undefined) | inactive: 1.32%
O=C(NC1CCCc2ccccc21)c1ccc([N+](=O)[O-])cc1 (centres undefined) | inactive: -10.7%
COCCn1c(N)c(N(Cc2ccccc2)C(=O)C2CCCCC2)c(=O)[nH]c1=O | inactive: 8.62%
CC1CN(C(=O)COC(=O)c2ccc3ncsc3c2)CC(C)O1 (centres undefined) | inactive: -10.2%
Cc1ccc(-c2c3c(=O)n(C)c(=O)n(C)c3cn2Cc2ccccn2)cc1 | inactive: -46.9%
CCOc1ccc(NC(=O)CSc2cn[nH]n2)cc1 | inactive: 4.73%
CC(NC(=O)COC(=O)/C=C/c1cccc(F)c1)c1ccccc1 (centres undefined) | inactive: 28.9%
CCC(C)(C)NC(=O)C(c1ccc(C)cc1)N(CC1CCCO1)C(=O)CCC(=O)Nc1ccccn1 (centres undefined) | inactive: -6.87%
COc1cc(CC(=O)Nc2nc(-c3ccccc3)c(C(C)=O)s2)cc(OC)c1OC | inactive: -7.18%
COc1ccc(-c2cc(C(F)(F)F)nc(N)n2)cc1 | inactive: 18.9%
Cc1ccc2cc(C#N)c(SCC(=O)NNC(=O)Cc3ccccc3)nc2c1 | inactive: -19.1%
COC(=O)c1[nH]c2cccc(OC)c2c1NC(=O)CN1CCN(c2cccc(OC)c2)C(C)C1 (centres undefined) | inactive: 4.09%
C=CCNC(=S)Nc1ccc2nc(C)oc2c1 | inactive: 1.25%
CCc1nc2ccc(C(=O)N3CCC(O)(Cc4ccccc4)CC3)cn2c1N(C)C(=O)Cc1ccccc1 | inactive: 23.8%
Cc1ccc(Sc2c(C)nn(-c3ccccc3)c2OC(=O)CC(C)C)cc1 | inactive: -70.7%
CC1(C)CC(=O)C2=C(C1)Nc1ccccc1NC2c1cccnc1 (centres undefined) | inactive: 13%
O=C(COc1ccc(/C=N/NS(=O)(=O)c2ccccc2)cc1)Nc1cccc(Cl)c1 | inactive: 20.2%
CCC(Sc1nncn1C)C(=O)Nc1cc(C)on1 (centres undefined) | inactive: 0.284%
CC(C)(CN1CCN(Cc2ccccc2)CC1)NS(=O)(=O)c1ccccc1 | inactive: 0.735%
CS(=O)(=O)c1ccc2nc(NC(=O)c3ccc(N4C(=O)CCC4=O)cc3)sc2c1 | inactive: -19.7%

From PubChem BioAssay AID1347073 (National Center for Advancing Translational Sciences (NCATS), 2019)
